# Test results taken from the BET-seq Pho4 binding data (Le et al. 2018).
# Some of the results follow. The energies were worked out here from pooled read counts, against the library average; single values are noisy.
# Molecular target: T1, Pho4 (S. cerevisiae) (UniProt P07270)
# T1 sequence: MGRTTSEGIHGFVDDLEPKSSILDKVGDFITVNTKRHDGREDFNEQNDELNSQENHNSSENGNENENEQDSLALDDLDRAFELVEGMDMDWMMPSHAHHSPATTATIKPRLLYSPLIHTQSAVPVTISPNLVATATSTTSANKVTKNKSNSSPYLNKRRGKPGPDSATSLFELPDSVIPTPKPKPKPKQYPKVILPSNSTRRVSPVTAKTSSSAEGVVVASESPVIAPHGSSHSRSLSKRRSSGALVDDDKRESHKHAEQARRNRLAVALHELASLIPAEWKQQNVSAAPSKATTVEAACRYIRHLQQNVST
# Assay: relative binding free energy (BET-seq); higher = weaker binding
# Conditions: reference: library average
row,Sequence,relative binding free energy [kJ/mol]
1,TGGCGCACGTGGTGCG,-0.669
2,TAGTCCACGTGGGTTA,-0.0837
3,TTAGACACGTGTTATA,-0.167
4,CAGTGCACGTGAGCGG,0.711
5,GTGAACACGTGGCGTA,0.0837
6,TGTTTCACGTGGTGCC,1.3
7,AGTGTCACGTGGCCTG,-0.167
8,TTAAGCACGTGAAGTA,0.711
9,TGGACCACGTGGGGCG,-0.669
10,GTATGCACGTGGTTCG,-0.126
11,TTCGTCACGTGATGAT,0.962
12,TTGTACACGTGTTGTC,0.293
13,TGTTTCACGTGCAGTT,0.837
14,TGGAGCACGTGTAAGC,0.293
15,ATAGACACGTGTTTTA,-0.0418
16,TAAGACACGTGGGAGA,0.0418
17,AGATTCACGTGAGCTG,1.8
18,TTGATCACGTGCTTAG,0.167
19,TGGGCCACGTGGTGCT,-1.13
20,GCAGTCACGTGTGTGG,0.335
21,GGGATCACGTGGTGAT,0.92
22,AGTTTCACGTGTGGGC,1.55
23,GCGGGCACGTGGGTGC,-0.837
24,GTTTACACGTGGTGAG,1
25,TTAATCACGTGAACGT,2.05

row,Sequence,relative binding free energy [kJ/mol]
1,TGATGCACGTGTTAAA,0.0418
2,GTGGGCACGTGTGGGA,-0.251
3,AGGGGCACGTGTGTTA,-1.09
4,GTGCACACGTGTGTTA,0.251
5,AAGTTCACGTGGTGCG,0.544
6,AAGATCACGTGGCGGT,0.628
7,TTAGGCACGTGTAAAA,0.167
8,GGGGCCACGTGAGTTA,0.92
9,TTCAACACGTGTTAGT,0.293
10,ATAAGCACGTGTGGGG,-0.167
11,TACGGCACGTGATGTT,0.377
12,TATAGCACGTGTATCG,0.377
13,TTAATCACGTGGTCTA,0.126
14,AGGGGCACGTGGGCTG,-1.3
15,TTTTTCACGTGAGAAT,1.3
16,GTAGTCACGTGAGGTT,1.34
17,GTAGGCACGTGTTATC,0.0837
18,CAGCTCACGTGTAGGG,1.34
19,TTTTGCACGTGAGTCG,0.753
20,GGTGTCACGTGATAAT,1.17
21,TAGGGCACGTGTTGCT,-0.586
22,CTTAACACGTGAGTGT,0.586
23,AAGTACACGTGGTTGG,-0.0418
24,AGGTTCACGTGGTTGA,1.17
25,GGTGTCACGTGCGGGA,0.544

row,Sequence,relative binding free energy [kJ/mol]
1,GGCGTCACGTGTTTTT,1.26
2,TCTTTCACGTGCGGTT,1.26
3,CTTGGCACGTGTTGGT,-0.209
4,TGTAACACGTGTCTTT,0
5,CGCGTCACGTGGGCTT,0.335
6,TTAATCACGTGGCTTT,0.711
7,CGGGTCACGTGGGGAC,-0.377
8,CGGGTCACGTGGCGTG,-0.0837
9,TTTTTCACGTGGGAAT,1.21
10,TTGGGCACGTGTAATA,-0.335
11,AGGATCACGTGGGTGT,0
12,TTTGTCACGTGTTGTA,0.753
13,TATAGCACGTGAGTAA,0.628
14,TATGGCACGTGTATTG,-0.377
15,TTGTGCACGTGGGCTG,-0.628
16,TACGTCACGTGGCGGG,-0.46
17,TGGTTCACGTGGCATC,1.26
18,GTGAACACGTGTTGGA,0.167
19,TGTATCACGTGATGGC,1.09
20,TTATGCACGTGGTCGA,-0.293
21,GGGCGCACGTGTGGCC,0.0418
22,AGGTTCACGTGTGGCT,0.879
23,TATGACACGTGTGGTG,0.335
24,TGAGGCACGTGGGCTA,-1.3
25,GGTGCCACGTGGGCGA,-1.34

row,Sequence,relative binding free energy [kJ/mol]
1,CATGTCACGTGGGTCT,-0.251
2,AGAGTCACGTGTTGGC,0.586
3,GTGCTCACGTGATGTT,1.92
4,TTGGACACGTGAGTAT,1.21
5,AAGTACACGTGGAATG,0.753
6,GTGTTCACGTGTGCTC,1.21
7,TTCGTCACGTGGAGGT,0.209
8,TCATTCACGTGGAGGG,1.51
9,GGGGACACGTGGGCGT,-0.46
10,GTTGGCACGTGAGGGG,0.92
11,TGGGTCACGTGAAGGT,1.63
12,TGGTTCACGTGATGGA,1.63
13,GTGATCACGTGGTATG,0.126
14,GGAGTCACGTGTAGGT,0.46
15,AGGGGCACGTGGAGTG,-0.251
16,TGGTGCACGTGGGAGT,-0.251
17,TGTGTCACGTGGTCGC,0.167
18,AGTGGCACGTGGGGAT,-0.628
19,CGTTACACGTGCAGGT,0.502
20,ATTGGCACGTGTGTAA,-0.293
21,ATTATCACGTGATTAA,1.3
22,AGATTCACGTGGGGAT,0.669
23,GGGTGCACGTGACGAT,0.126
24,TGGATCACGTGATTCT,1.34
25,ATTTTCACGTGATACG,0.879

row,Sequence,relative binding free energy [kJ/mol]
1,TGATACACGTGTGTTA,0.209
2,TCGAGCACGTGTGTGG,-0.418
3,TGGGGCACGTGATCGT,-0.126
4,CTTTTCACGTGGTGCA,0.795
5,GTTTTCACGTGTCGCG,1.05
6,ATTTCCACGTGTTTGT,0.167
7,GGGTTCACGTGACCGG,1.42
8,TTATCCACGTGAATGG,1.92
9,TGGTACACGTGCATTG,0.126
10,TGTTCCACGTGTTTTA,0.586
11,GATCGCACGTGGGTTA,-0.167
12,AAGTTCACGTGTATGT,1.13
13,CTGTGCACGTGTGTCG,-0.0837
14,GGGCGCACGTGTAGTG,-0.167
15,ATCCGCACGTGTTTGG,-0.293
16,AGTTTCACGTGCAGTT,0.879
17,GGGATCACGTGCGAAT,1.21
18,GGGTTCACGTGGAGCT,1.51
19,TATGCCACGTGGAAGG,0
20,CGTTGCACGTGGGGAG,-0.418
21,AATTGCACGTGAGAAT,0.962
22,AAATGCACGTGTTGGA,0.251
23,TTAGACACGTGCGGTT,-0.0837
24,TTTTGCACGTGTTGAT,0.628
25,GTGTTCACGTGCAGTT,1.38

row,Sequence,relative binding free energy [kJ/mol]
1,GCTGACACGTGGGTAT,0.251
2,AGGTTCACGTGTTGGT,1.55
3,CAGGCCACGTGTAGGG,-0.377
4,GTTCGCACGTGTTGTG,0.418
5,CTGGGCACGTGGGAGT,-1.13
6,AGCAGCACGTGGAGTT,0.126
7,GTGGGCACGTGGTATG,-0.628
8,CTTTGCACGTGGGGGA,-0.544
9,TTGGGCACGTGTCGAG,-0.628
10,TCGGGCACGTGATAGT,-0.586
11,GGCGGCACGTGAGAAT,1.46
12,GTATTCACGTGGAATA,1.3
13,CGTCACACGTGTGTGG,0.502
14,ATAGGCACGTGGTTCG,-0.418
15,GGGGGCACGTGAAACG,0.0418
16,TGGGTCACGTGGTCAG,0.293
17,CAAGGCACGTGAGGTG,0.377
18,ACGTTCACGTGGATAT,1.09
19,TTACACACGTGTGAGT,0.418
20,ATTAGCACGTGTTTGG,-0.377
21,TAGTTCACGTGAGCGG,1.13
